Experimental findings from the RNAGym collection of RNA variant scans (doi:10.1073/pnas.2313332121) are described below.

Variants at the floor of the assay are shown more often than the library holds them.

The labels stand for the following.
B1: TPR 5TU (parent)
chain: GGAUCUUCUCGAUCUAACAAAAAAGACAAAUCUGCCACAAAGCUUGAGAGCAUCUUCGGAUGCAGAGGCGGCAGCCUUCGGUGGCGCGAUAGCGCCAACGUUCUCAACUAUGACACGCAAAACGCGUGCUCCGUUGAAUGGAGUUUAUCAUG

This data set covers variants of B1. The data set is described as follows: polymerase ribozyme fitness, log enrichment relative to wild type (log ratio); higher = more active; in vitro selection for triplet polymerase activity. In a few lines:
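Libraries of mutants in each subunit of a heterodimeric triplet polymerase ribozyme were generated by PCR and transcribed. In triplicate, each went through one in vitro selection round: annealing with biotinylated primer, partner subunit and triplets; frozen incubation at −7 °C; gel excision of extended constructs; streptavidin-bead capture; RT-PCR. Fitness, taken from Illumina sequencing of input and output libraries, is the logarithm of a genotype's enrichment over wild-type enrichment, averaged across replicates with inverse-variance weights. The logarithm is base 2, and genotypes needed ≥10 input reads and ≥1 read per output to be kept.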
Regarding A17U G81C U102G U130G G141A, the “polymerase ribozyme fitness (log ratio)” value was not above -4.2.

A17U A22U A23U A39G G68A G80A U134C G143C: the “polymerase ribozyme fitness (log ratio)” value was not above -4.2.

Turning to A17U A22C A30C C75U C108A U148A, the “polymerase ribozyme fitness (log ratio)” value is not above -4.2.

With A17G G71A, the “polymerase ribozyme fitness (log ratio)” value is -3.06.

Regarding A17G U53A C99G U130C, the “polymerase ribozyme fitness (log ratio)” value is not above -4.2.

In the case of A17G C32U C35A G84A G100A C114A, the “polymerase ribozyme fitness (log ratio)” value was not above -4.2.

As for C18G A28U A29U A66G G67C C96U A106C, the “polymerase ribozyme fitness (log ratio)” value is not above -4.2.

For C18A G25C A28U G62C C76G U82C A120U U127G U139A, the “polymerase ribozyme fitness (log ratio)” value was not above -4.2.

In the case of A17G G25C U33G C43U C54U C76A C93U C99A A106G C114A A150C, the “polymerase ribozyme fitness (log ratio)” value was not above -4.2.

As for A17U U53G C57U G59C G117U, the “polymerase ribozyme fitness (log ratio)” value is -0.451.

For the variant C18G U31C A40G G92C A107C, the “polymerase ribozyme fitness (log ratio)” value is not above -4.2.

For A17U C35G G48C A49U G86A A91C G124C U148A, the “polymerase ribozyme fitness (log ratio)” value is not above -4.2.

With A17G C35A C63G C79G G92C C96U, the “polymerase ribozyme fitness (log ratio)” value is not above -4.2.

Take C18U A19U A26G A91U U104G: the “polymerase ribozyme fitness (log ratio)” value was not above -4.2.

Regarding A17G U31C C35G G86A A121U, the “polymerase ribozyme fitness (log ratio)” value is -4.19.

Take A17U C38U C85A U139A G143A: the “polymerase ribozyme fitness (log ratio)” value is not above -4.2.

Consider C18G A22C U45A G88U A89U G92C C99G, for which the “polymerase ribozyme fitness (log ratio)” value was not above -4.2.

For C18A G84A G100U C125G, the “polymerase ribozyme fitness (log ratio)” value was not above -4.2.

For the variant C18A A30U C85A, the “polymerase ribozyme fitness (log ratio)” value is not above -4.2.

Consider C18G U31C C69G A91G, for which the “polymerase ribozyme fitness (log ratio)” value is not above -4.2.

C18A A29C G67C C95G: the “polymerase ribozyme fitness (log ratio)” value is not above -4.2.

As for A17U A41C C51A C57G A66U, the “polymerase ribozyme fitness (log ratio)” value was not above -4.2.

On to A17G U31A U90G U148A, for which the “polymerase ribozyme fitness (log ratio)” value was not above -4.2.

With C18G C87G, the “polymerase ribozyme fitness (log ratio)” value was not above -4.2.

Take A17U G58C G71A A98G G126U C131A: the “polymerase ribozyme fitness (log ratio)” value was not above -4.2.

C18U A19C A21G G80C A107U G152U: the “polymerase ribozyme fitness (log ratio)” value was not above -4.2.

In the case of C18G C32G U55A A60U G83C A137C U144C, the “polymerase ribozyme fitness (log ratio)” value is not above -4.2.

As for A17G C18U A49C A98U C99A C105U A120U, the “polymerase ribozyme fitness (log ratio)” value was not above -4.2.

Turning to A17U A19G C35A C57A G84A C95A C129G G133C C149U, the “polymerase ribozyme fitness (log ratio)” value was not above -4.2.

As to A17G U33C A60G C75A C87U, the “polymerase ribozyme fitness (log ratio)” value is not above -4.2.

For A17U C85A, the “polymerase ribozyme fitness (log ratio)” value is -1.17.

Regarding A17G C18U A40C C99G, the “polymerase ribozyme fitness (log ratio)” value was -3.19.

As to A17G C51U G68A U82C C116U, the “polymerase ribozyme fitness (log ratio)” value was not above -4.2.

In the case of C18A C54A A66U C87A G88U U104G, the “polymerase ribozyme fitness (log ratio)” value was not above -4.2.

C18G C51U C87G C99A U101C C118U G136A: the “polymerase ribozyme fitness (log ratio)” value is not above -4.2.

A17U A47G U82G C95U C96G G117C G141A: the “polymerase ribozyme fitness (log ratio)” value was not above -4.2.

Consider C18G A91C C118A, for which the “polymerase ribozyme fitness (log ratio)” value is not above -4.2.

As to A17U C63A C76G G86C C87U U127A, the “polymerase ribozyme fitness (log ratio)” value is not above -4.2.

Regarding A17G C75A C76A U90C C93G, the “polymerase ribozyme fitness (log ratio)” value is not above -4.2.

Take A17G C51U A106G A120C A122U: the “polymerase ribozyme fitness (log ratio)” value is -1.36.

Take A17U A49C U61A C63U C72U C93A G128U G141C: the “polymerase ribozyme fitness (log ratio)” value is not above -4.2.

Take A17G G59A U77G A91C: the “polymerase ribozyme fitness (log ratio)” value is not above -4.2.

Turning to A17U C51G G83A U134C, the “polymerase ribozyme fitness (log ratio)” value was -3.2.

In the case of A17G U31C C38U C51U G68U C75U G100A U144C, the “polymerase ribozyme fitness (log ratio)” value was not above -4.2.

Consider C18G A52U U82A, for which the “polymerase ribozyme fitness (log ratio)” value was -3.02.

Take C18G A24G A26C U78A G80C A91U C99U: the “polymerase ribozyme fitness (log ratio)” value is not above -4.2.

As for C18G A28G A29U A98G, the “polymerase ribozyme fitness (log ratio)” value was not above -4.2.

With C18U A20C A37U G59U G62U G83C C87U C103A C116U G136U, the “polymerase ribozyme fitness (log ratio)” value is not above -4.2.

With A17U A28U A91G A106G C118U G128U G140C, the “polymerase ribozyme fitness (log ratio)” value is not above -4.2.

For the variant A17U G25U U55A C87G, the “polymerase ribozyme fitness (log ratio)” value is not above -4.2.

In the case of C18G A26G G46A C57A C63G C95U, the “polymerase ribozyme fitness (log ratio)” value is not above -4.2.

Consider C18G A29C C32A, for which the “polymerase ribozyme fitness (log ratio)” value is not above -4.2.

As to A17U A30G U44G C75A U82G A97G U109C C129G A142G A147U, the “polymerase ribozyme fitness (log ratio)” value is not above -4.2.

Regarding A17U C54A C63U G92A C105U G140U, the “polymerase ribozyme fitness (log ratio)” value is not above -4.2.

For the variant A17G G88U, the “polymerase ribozyme fitness (log ratio)” value was not above -4.2.

As for A17U G59A A60G C85A U101A G143U, the “polymerase ribozyme fitness (log ratio)” value is not above -4.2.

As for A17G C76G, the “polymerase ribozyme fitness (log ratio)” value was not above -4.2.

As for C18A A19G C85U U101G C125U C129A, the “polymerase ribozyme fitness (log ratio)” value is not above -4.2.

On to A17U A47C A60G C75U G143U, for which the “polymerase ribozyme fitness (log ratio)” value is not above -4.2.

Regarding A17U C75A, the “polymerase ribozyme fitness (log ratio)” value is not above -4.2.

C18G G42A G84C A97U A122U A138U: the “polymerase ribozyme fitness (log ratio)” value was not above -4.2.

For the variant C18A A21C C85A A91U, the “polymerase ribozyme fitness (log ratio)” value is not above -4.2.

Regarding A17U G25C A29U G48C U53A G70U C93G C129A C131A A150C, the “polymerase ribozyme fitness (log ratio)” value was not above -4.2.

As to A17G C38G C51A U78G U90G C131A, the “polymerase ribozyme fitness (log ratio)” value was not above -4.2.

On to A17U C57A G83C C99G, for which the “polymerase ribozyme fitness (log ratio)” value was not above -4.2.

As to C18G U101C A107G, the “polymerase ribozyme fitness (log ratio)” value was not above -4.2.

For the variant C18G C27U C76A G80U U139A, the “polymerase ribozyme fitness (log ratio)” value is not above -4.2.

C18G A66U C85U U145C: the “polymerase ribozyme fitness (log ratio)” value was not above -4.2.

Consider A17G C54G G67U C93G G126U, for which the “polymerase ribozyme fitness (log ratio)” value was not above -4.2.

Consider A17U A52U U55A U77G C93U U104A, for which the “polymerase ribozyme fitness (log ratio)” value was not above -4.2.

Take A17G U90C C93U C105G A122G G143C: the “polymerase ribozyme fitness (log ratio)” value was not above -4.2.

For C18G U31G C32U U77G G81C G152A, the “polymerase ribozyme fitness (log ratio)” value was not above -4.2.

Take C18A A23C G59A G88C A107G A142U: the “polymerase ribozyme fitness (log ratio)” value is not above -4.2.

For A17G U101A C105G, the “polymerase ribozyme fitness (log ratio)” value was -3.18.

A17U G50A C87G G141A: the “polymerase ribozyme fitness (log ratio)” value was not above -4.2.

Consider C18G G71A G83U U144A, for which the “polymerase ribozyme fitness (log ratio)” value is not above -4.2.

In the case of C18A A26C C36U G88A G140C, the “polymerase ribozyme fitness (log ratio)” value was not above -4.2.

Consider A17U U33A U45A C57G G70C C87A A98U, for which the “polymerase ribozyme fitness (log ratio)” value was not above -4.2.

As to C18U A29U G58C G59A A89G C95G, the “polymerase ribozyme fitness (log ratio)” value is not above -4.2.

As for C18G C27G C69G C72G G86A U104G C116G A120G, the “polymerase ribozyme fitness (log ratio)” value was not above -4.2.

A17G G48A C87G C93A A97U G140A: the “polymerase ribozyme fitness (log ratio)” value is not above -4.2.

As to A17U A21C U44A A49C C72A U82A U134A, the “polymerase ribozyme fitness (log ratio)” value was not above -4.2.

Take A17U C51U G83C A91U U139A G140A G141A U148C: the “polymerase ribozyme fitness (log ratio)” value is not above -4.2.
